# Measurements from paper PMC4336329 (PLoS ONE, 2015).
# About 14,000 (4.5%) of roughly 310,000 compounds showed an effect of 50% or more. Effects have a minus sign here. The list shows a part of the results.
# Target: human ether-à-go-go-related gene (hERG) potassium channel (human, UniProt Q12809)
# Experiment: primary screen, population patch clamp on CHO cells stably expressing hERG
# 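Also: peak tail current of the secondary pulse compared with the same well before compound.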
# human ether-à-go-go-related gene (hERG) potassium channel, sequence (Q12809 whole entry, looked up): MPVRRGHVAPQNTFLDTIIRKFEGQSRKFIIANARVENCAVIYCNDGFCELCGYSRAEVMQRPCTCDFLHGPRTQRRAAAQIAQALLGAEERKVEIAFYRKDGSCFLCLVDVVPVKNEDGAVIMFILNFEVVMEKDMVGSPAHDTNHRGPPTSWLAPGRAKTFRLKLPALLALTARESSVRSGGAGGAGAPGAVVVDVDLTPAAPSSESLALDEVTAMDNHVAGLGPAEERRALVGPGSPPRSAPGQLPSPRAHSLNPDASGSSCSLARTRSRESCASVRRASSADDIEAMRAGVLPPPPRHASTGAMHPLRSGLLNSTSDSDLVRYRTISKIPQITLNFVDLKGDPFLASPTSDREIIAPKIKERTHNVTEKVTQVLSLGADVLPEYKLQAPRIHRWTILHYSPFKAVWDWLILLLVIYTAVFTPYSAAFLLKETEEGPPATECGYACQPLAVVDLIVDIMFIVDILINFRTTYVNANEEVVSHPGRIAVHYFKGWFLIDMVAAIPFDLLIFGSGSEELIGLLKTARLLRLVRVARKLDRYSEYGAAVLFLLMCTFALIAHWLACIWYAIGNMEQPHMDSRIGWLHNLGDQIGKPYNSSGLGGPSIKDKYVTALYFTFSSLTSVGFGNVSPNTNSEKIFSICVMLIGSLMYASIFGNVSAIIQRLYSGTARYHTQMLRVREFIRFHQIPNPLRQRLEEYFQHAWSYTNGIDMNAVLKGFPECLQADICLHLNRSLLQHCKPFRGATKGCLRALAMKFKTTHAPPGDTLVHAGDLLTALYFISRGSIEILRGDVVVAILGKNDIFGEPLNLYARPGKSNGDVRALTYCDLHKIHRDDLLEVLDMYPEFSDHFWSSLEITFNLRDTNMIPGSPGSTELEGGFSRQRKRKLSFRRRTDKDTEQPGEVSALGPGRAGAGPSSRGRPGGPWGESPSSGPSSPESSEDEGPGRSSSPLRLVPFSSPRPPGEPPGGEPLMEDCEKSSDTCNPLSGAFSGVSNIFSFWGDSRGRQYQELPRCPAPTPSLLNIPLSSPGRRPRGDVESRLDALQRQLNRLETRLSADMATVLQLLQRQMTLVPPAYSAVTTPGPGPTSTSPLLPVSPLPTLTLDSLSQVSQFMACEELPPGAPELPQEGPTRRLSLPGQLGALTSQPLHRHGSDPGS
row,Compound,"hERG current change (%, negative = inhibition) at 10uM"
1,CC(C)c1ccc(OC(=O)NCCO)cc1,-15%
2,CC[C@]12CCCN3CCc4c(n(c5ccccc45)C(=O)C1)C32 (stereo partly drawn),-65.7%
3,CC(C)C(CCNC(=O)CN1C(=O)c2ccccc2C1=O)c1ccco1 (stereo not drawn),-13%
4,COc1ccc(S(=O)(=O)NCC2CCCN(C(=O)CC3CCCC3)C2)cc1 (stereo not drawn),-25%
5,CC(C)[C@H](NC(=O)c1ccccc1)C(=O)O,24.6%
6,CCn1ncc(C2=NOC(C(=O)NCc3ccc(OC)cc3)C2)c1C (stereo not drawn),-2.53%
7,Cc1nn(C)c(=O)c(N)c1-c1cc(-c2ccc(Cl)c(Cl)c2)n[nH]1,11.2%
8,Cc1ccc(-c2cccc(C3CC=CC4C3C(=O)N(Cc3ccccc3)C4c3cc(C)ccc3F)c2)cc1 (stereo not drawn),10.8%
9,CCOC(=O)/C(=C/c1cn(C)c2ccccc12)NC(=O)c1ccccc1,-1.73%
10,Cc1cccc(S(=O)(=O)NC2CCCCCCC2)c1,-6.75%
11,COc1cc(C2NC(=O)N(C)C3=C2C(=O)CCC3)cc(OC)c1OC (stereo not drawn),7.87%
12,CCN(CC)CCCN1CC(=O)N2[C@@H](Cc3c([nH]c4ccccc34)C2(C)C)C1=O,1.24%
13,CCC(=O)Nc1cccc(C2=NOC3(C2)C[C@H](C(N)=O)N(C(=O)Cc2ccc([N+](=O)[O-])cc2)C3)c1 (stereo partly drawn),0.688%
14,CCOc1cc(/C=N/NC(N)=O)ccc1OCC(=O)Nc1ccc(C)c(C)c1,-16.7%
15,Cc1ccc(/C=N\NC(=O)c2csnn2)cc1,3.58%
16,O=C(COC(=O)c1cc(S(=O)(=O)N2CCCCC2)ccc1N1CCOCC1)NC1CCCCC1,-1.4%
17,CCCn1c(NC(=O)c2cccc(C)c2C)nc2ccccc21,-26.7%
18,CC(=O)N1CCC2(CC1)C/C(=N\NC(=S)Nc1ccccc1F)c1cc(O)ccc1O2,-69%
19,COc1cccc(CNC(=O)Cn2ccc3cc(S(=O)(=O)N4CCCCCC4)ccc32)c1OC,-22.5%
20,CN(C)C(=O)CN1C(=O)c2cccc3cccc1c23,22.4%
21,CN1CCN(Cc2nc3ccccc3c(=O)[nH]2)CC1,6.57%

row,Compound,"hERG current change (%, negative = inhibition) at 10uM"
1,Cc1ccc(S(=O)(=O)N(C)CC(=O)O/N=C(\N)c2cccnc2)cc1,-0.801%
2,COc1ccc(NC(=O)N2CCCC2C(=O)NCCc2ccccc2)cc1 (stereo not drawn),-19.9%
3,c1ccc(OCc2cc(-c3ccccc3)no2)cc1,21.3%
4,O=C(CCC(=O)Nc1ccc(Cl)cc1Cl)NNC(=O)[C@@H]1CCCC[C@@H]1C(=O)O,20.2%
5,CC(=O)NC1=C(C#N)C(c2ccccc2)c2c(ccc3ccccc23)O1 (stereo not drawn),-2.57%
6,CC(C)NS(=O)(=O)c1ccc(CCC(=O)N2CCc3ccccc3C2)cc1,-11.9%
7,COc1ccc([N+](=O)[O-])cc1C(=O)Nc1ccc(OCC(=O)N2CCOCC2)cc1,-11.8%
8,Oc1cccc(N2Cc3ccccc3C2)c1,14.6%
9,COCCNC(=O)c1ccc2c(=O)n(CCCN3CCCC3=O)c(=S)[nH]c2c1,6.36%
10,COc1ccc(/C=C2\Oc3cc(OC(=O)N4CCOCC4)ccc3C2=O)c(OC)c1,12.9%
11,O=c1[nH]c(=S)n(-c2ccc(Br)cc2)c(O)c1C=Nc1ccc(N2CCOCC2)cc1,-13.5%
12,CCCc1c(C(=O)NNc2ccc(C)cc2)cnn1-c1ccccc1,1.29%
13,O=C(CSc1nc(N2CCOCC2)nc(N2CCOCC2)n1)Nc1ccc(Cl)cc1Cl,-21.8%
14,COc1cc(C(c2c(C)[nH][nH]c2=O)c2c(C)[nH][nH]c2=O)ccc1OC(C)C,40.4%
15,O=C(NCc1n[nH]c(=S)n1-c1ccc(Cl)c(Cl)c1)c1ccc(S(=O)(=O)N2CCOCC2)cc1,14.5%
16,Cc1cccc(C(=O)NCC(=O)N2CCN(S(=O)(=O)c3ccccc3)CC2)c1,-10.8%
17,Cc1ccc(C)c(N(CC(=O)NCc2ccco2)C(=O)CNS(=O)(=O)c2ccc(F)cc2)c1,-8.08%
18,CCSc1nnc(NC(=O)c2ccccc2)s1,-15.4%
19,Cn1c(=O)c2c(nc(CN3CCN(c4ccccc4)CC3)n2CCN2CCOCC2)n(C)c1=O,-21.7%
20,Cc1ccc(NC(=S)Nc2ccc3cn[nH]c3c2)c(C)c1,-19.3%
21,O=C(NCc1cccc(Br)c1)C1CC(c2ccc(C(F)(F)F)cc2)=NO1 (stereo not drawn),7.56%
